# Data reported in the supplement of paper PMC3334620.
# Whole data set: some 33,000 sequences, median “E-score (-0.5 to 0.5)” near -0.021, cut for the highest 2% near 0.32. This is one part of the list.
# Target: T1, Zap1 (UniProt P47043)
# T1 sequence: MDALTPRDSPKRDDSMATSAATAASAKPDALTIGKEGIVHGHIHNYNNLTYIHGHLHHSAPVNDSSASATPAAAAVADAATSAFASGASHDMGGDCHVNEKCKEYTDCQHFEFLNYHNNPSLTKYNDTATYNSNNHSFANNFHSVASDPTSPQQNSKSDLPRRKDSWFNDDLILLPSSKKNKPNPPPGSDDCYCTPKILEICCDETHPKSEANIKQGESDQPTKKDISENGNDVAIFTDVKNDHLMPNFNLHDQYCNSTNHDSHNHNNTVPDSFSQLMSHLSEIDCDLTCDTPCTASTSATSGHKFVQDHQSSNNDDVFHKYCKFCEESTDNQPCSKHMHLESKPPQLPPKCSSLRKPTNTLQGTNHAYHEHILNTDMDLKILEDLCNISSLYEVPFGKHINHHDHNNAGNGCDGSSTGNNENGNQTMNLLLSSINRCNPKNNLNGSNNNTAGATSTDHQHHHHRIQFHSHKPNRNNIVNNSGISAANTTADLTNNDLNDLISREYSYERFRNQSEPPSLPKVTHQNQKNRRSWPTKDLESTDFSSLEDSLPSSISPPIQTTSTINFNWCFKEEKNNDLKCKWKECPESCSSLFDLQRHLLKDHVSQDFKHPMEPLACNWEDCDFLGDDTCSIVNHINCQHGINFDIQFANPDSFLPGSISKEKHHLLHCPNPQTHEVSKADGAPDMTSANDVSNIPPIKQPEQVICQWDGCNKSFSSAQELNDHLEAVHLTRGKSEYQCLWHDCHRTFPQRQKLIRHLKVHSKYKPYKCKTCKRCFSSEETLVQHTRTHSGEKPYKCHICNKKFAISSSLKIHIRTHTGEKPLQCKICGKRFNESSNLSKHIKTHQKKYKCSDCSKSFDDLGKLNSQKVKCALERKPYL
# Test: PBM E-score (8-mer binding enrichment) (E-score (-0.5 to 0.5)); higher = stronger / more preferred TF binding; most listed sequences are background and not binding sites
# Settings: protein concentration: 200 nM; construct: GST-full length
# Summary of the method: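 Each ungapped eight-base word and its reverse complement, pooled, received an E-score from the Universal PBM Analysis Suite. Underlying scans, normalised with masliner, recorded fluorescent anti-GST bound to GST-tagged yeast transcription factors. These were applied at about 100-200 nM to universal all-10-mer Agilent arrays double-stranded by primer extension.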
row,Sequence,PBM E-score
1,AAAGTCGG,-0.17
2,GACGGAAC,-0.159
3,TTATCCAA,0.207
4,AGGTCTGA,-0.0295
5,AGCAGTGG,-0.0878
6,CTGCGACC,0.117
7,AACGCCGA,-0.15
8,AGCGGAAC,-0.134
9,CTAGCTTA,-0.0605
10,GGACAATA,0.148
11,ATAGCGGA,-0.166
12,ACTCGAGG,0.0452
13,AGAAAAAT,0.165
14,CCTTGCCG,-0.2
15,GACAGCGC,-0.171
16,AATGGGCC,0.0184
17,ATCACAGC,-0.0564
18,CCCTGATC,-0.0406
19,CGAGAAGC,-0.229
20,CCCATCAC,0.0418
21,CTGTCATA,-0.0292
22,ACCGGTCG,0.0185
23,CCTGCTAC,-0.0218
24,ACTCCGCA,-0.0707
25,ACAGAACA,0.162

row,Sequence,PBM E-score
1,TAGGCGCA,-0.162
2,CCATGGCA,0.133
3,GCGGAGTA,-0.0663
4,ACCCGGGA,0.206
5,CACAATCG,-0.0767
6,CCGCTAAC,0.219
7,GAAACAGC,-0.189
8,AGGTTACT,0.457
9,CAGCGGAA,-0.224
10,GTCAGAAC,0.0394
11,CAATATCA,0.0291
12,GACGATTA,-0.0471
13,CCGACCCG,-0.00013
14,GGAGTTAC,0.137
15,AATCACAC,0.0533
16,CACCCCGG,0.116
17,GAAGACGC,-0.124
18,CTATCTTA,0.0332
19,GCTAAATA,-0.038
20,CCGGGTGC,0.0477
21,CAAATGTA,0.142
22,CTCAACAG,-0.0658
23,GAGTTTGC,-0.106
24,ATGGTGCG,0.0412
25,ACGGCCCT,0.00462

row,Sequence,PBM E-score
1,CTAAGCTC,-0.082
2,CACTTAAG,0.0831
3,GCCCATGA,0.0195
4,GCACGCCC,-0.00678
5,AATCATGT,0.0175
6,GGTCCTCA,0.0332
7,AATGGCAG,0.0472
8,AGGTGACA,0.0888
9,ACATAACA,0.132
10,ATGCCTTA,-0.136
11,ATATTTGA,-0.071
12,AGTCACCA,0.0389
13,CCCGTCTA,-0.0803
14,GAGGGGAC,-0.0389
15,CATTACCG,0.0828
16,CGATTAAC,0.124
17,ACACATCA,-0.158
18,ACAGACCG,-0.056
19,TCTGGACA,-0.0407
20,ACTGTCTC,-0.258
21,ACTTAAGT,0.0877
22,ACAGAGCG,-0.182
23,ATTGTGCG,-0.0998
24,AGCTTCGA,-0.0403
25,AGGATTCG,0.0176

row,Sequence,PBM E-score
1,CATGAGTA,-0.147
2,ATTGCCGA,-0.283
3,CTATATAG,0.0438
4,AGCCTGCA,-0.237
5,CCAATTTA,0.159
6,CTTCCCCA,-0.0454
7,AGAATGGA,-0.0517
8,CTAAAGTA,-0.094
9,GGTGTACA,0.0255
10,AACGCCTC,-0.0586
11,CCAGTAAC,0.245
12,CGCTTATC,-0.136
13,ACAACCTC,0.31
14,ACCCGTAG,0.107
15,ATCGCAAG,0.104
16,CAGGGGCG,-0.132
17,CTGTGTGA,-0.0255
18,CATTGCGG,0.0854
19,AACGACCT,0.211
20,TTCATGAA,0.157
21,GCGTGTGA,-0.0561
22,CAGCGCGA,-0.11
23,GGAGTAAC,0.199
24,AGCGATCA,-0.104
25,CGCTACCG,0.0227

row,Sequence,PBM E-score
1,AGCATAGC,-0.28
2,GGTCTCTA,0.101
3,AAAGCAGG,-0.075
4,GGTTGGTA,0.283
5,GCATCCCA,-0.141
6,CATGGGGG,-0.138
7,TGCCGGCA,-0.204
8,GCCCCGAA,0.0199
9,CTATGATA,0.00378
10,CAGCTCTA,-0.265
11,AAGCTCCT,-0.269
12,AAAAATCG,-0.144
13,AAACGGGA,-0.191
14,GTGCAGGA,-0.245
15,AAGTTCCG,-0.0642
16,TACTGAGA,-0.0902
17,ACTTCTTA,0.0552
18,GTCGTTTA,0.225
19,ACCCCAGT,0.25
20,AGATGATG,-0.0346
21,CAGGTAGA,0.193
22,CAGGAAGG,-0.271
23,CTTCCATA,-0.188
24,GGCCGTTA,0.168
25,GGGGGGCA,-0.433

row,Sequence,PBM E-score
1,TGACCCCA,0.31
2,AGTTAACG,0.157
3,ACGGGCTG,-0.137
4,GGCTAGCC,-0.248
5,TCGGTAGA,0.0519
6,CAGTCTAA,0.00889
7,AAAATCTT,-0.107
8,AGAGGGAG,-0.185
9,ACAGTGAG,-0.0155
10,ACCGGCAC,0.0526
11,CTTAGACC,-0.0476
12,GCTCACTA,0.00041
13,GGGCATTA,-0.0349
14,CTTAGCTC,-0.15
15,AATTACCT,0.253
16,CCTTCCAC,-0.209
17,CCTCTTCC,-0.127
18,ACTTGTAC,-0.0795
19,GACGAACC,0.00791
20,ATGGTAGC,0.041
21,AGGGGCTC,-0.134
22,GCCCAGTA,-0.075
23,TACCCTCA,0.312
24,AAGGTACC,0.445
25,GTTACAAA,0.343

row,Sequence,PBM E-score
1,CCAGCGCA,-0.348
2,TAAGCGTA,-0.135
3,CGCGGTTC,0.181
4,AGGAGGCG,-0.398
5,GAGGCACA,-0.142
6,CTATCGGC,-0.1
7,AAGGCGAC,-0.264
8,CGTTGTGC,-0.0934
9,ACGGCAGT,-0.163
10,CAGCTGAC,-0.0319
11,CACACTCG,-0.221
12,GCAGGAGC,-0.119
13,CACGTCGC,-0.229
14,ATCCACAA,0.0252
15,ATTCCTTC,-0.0773
16,GAGATATA,0.0432
17,ACGAATAC,0.0278
18,AGTTGTGA,0.193
19,AATACGGC,0.191
20,GGAAACAA,0.0476
21,ACACCATG,-0.0267
22,CCAAACAA,0.246
23,ATTATTGC,0.0913
24,CCGCCCGC,-0.0378
25,CCTTGTAA,0.212

row,Sequence,PBM E-score
1,AAGCCTCG,-0.154
2,GATCAGAC,-0.114
3,TAGATTAA,0.247
4,CGGCTGTC,-0.163
5,ACACTAAT,0.052
6,CAATCAAA,0.054
7,AACAATCC,0.16
8,CCCCTGTA,0.02
9,AGACTCTA,-0.29
10,CCCGGCTC,-0.152
11,CCTTCGAA,0.0979
12,CGAGCGTC,-0.0149
13,CTTGTGGC,0.0412
14,ATTATAAT,0.239
15,GTACGTTA,0.0459
16,ACCTCCGT,0.11
17,CACTTAAC,0.054
18,ACAATCAG,0.0621
19,CACGGCAC,0.00027
20,GGGTCTTA,0.168
21,ACCAACTC,0.115
22,ACGCCAGT,-0.225
23,CTTATACC,0.106
24,AGTCTAAA,0.0205
25,CCAGAAAC,0.19

row,Sequence,PBM E-score
1,GGGGCCCC,0.262
2,CTTCCGAC,-0.098
3,GTTTCGTA,0.226
4,AAGTTGCA,-0.16
5,AAGCGGCA,-0.0214
6,GAAGCAAA,-0.0942
7,CGGGGCGA,-0.146
8,AGTACGAT,0.0149
9,CAGTAGGC,-0.304
10,AACCCAAG,0.346
11,GTTATATA,0.359
12,CCGCGCGA,0.124
13,TGTACGAA,0.108
14,ATCAACTC,-0.0779
15,CTCGAGAC,0.142
16,CAAGCTGA,-0.0332
17,CCCTGTGC,0.0717
18,GATGTTGA,-0.118
19,CTTCCTTA,-0.0781
